Test results: the supplement of paper PMC5499739
Whole data set: some 16,000 sequences, median “Z-score” near -0.37, cut for the highest 2% near 3.2. The list shows a part of the results.

What follows are sequences tested on RBM10 RRM1-ZnF (GST-tagged construct) (assay: RNAcompete 7-mer binding Z-score; higher = stronger binding preference).
Outline: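 A one-sided Z-score for enrichment, taken across the probes containing each heptamer motif, was assigned to every such motif. The RNA came from a designed pool of 241 399 sequences up to 41 nt (1.5 nmol), bound by 20 pmol of GST-tagged RBM10 constructs in 1 ml Hepes pH 7.8 buffer with glutathione Sepharose beads for 30 min at 4°C. Four 2-min washes at 4°C preceded identification of bound RNA by microarray hybridisation.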

Sequence	RNAcompete 7-mer binding Z-score
AUGAGAU	0.241
CCAAUUU	-0.928
CGGGAAU	1.68
AGCAAGC	-0.136
CGUUCUA	-0.811
AACUCAA	-0.555
GCCUUUA	-0.805
UUGUAUG	-0.113
UAUGCUC	-0.805
GUCCUGA	-0.506
UGUCUAC	-0.626
UCAACCA	-0.636
AGGUGUC	0.508
CAAAUCA	-0.707
AUACCAU	-0.828
GGCGCAU	0.183
GGUGAUA	1.87
ACAGACG	0.111
CCCGAUA	-0.659
CGAAUUC	-0.769
CAAACAC	-0.623
CAUUCUU	-0.789
CGAUAGA	-0.149

Sequence	RNAcompete 7-mer binding Z-score
UCGGAUU	-0.279
CAAUAUC	-0.668
AUGAAGU	0.42
CCUCUGC	-0.665
GGCACUG	0.709
CCAAGGC	-0.171
AAACGAU	-0.262
CAACUAU	-0.649
CCAGUUU	-0.831
UUAUUUU	-0.756
AGCACAG	-0.145
UCCGGAU	-0.0902
UUGACCG	-0.678
UUGUUUG	0.0138
CACUUUC	-0.928
UGUUAAC	-0.552
AACGCCU	-0.886
CCCAAAA	-0.818
AGUUGAU	0.212
CCGUUGA	-0.591
GAAUGCU	-0.184
AGCAUCG	-0.334
CGAGUCG	-0.301

Sequence	RNAcompete 7-mer binding Z-score
UCCAUCC	-0.636
GCGCGCA	0.0723
AUUUCAG	-0.613
GUGUUGA	0.846
GUGACAC	0.0495
UACCCGU	-0.753
GGUAAAG	3.32
AGUCUGG	0.14
GACCCUU	-0.945
UAUCUCU	-0.74
CUAUUUA	-0.824
CACAACU	-0.766
CUACUAC	-0.769
AUUGUCU	-0.737
GUGCGCG	1.16
GCAACAG	0.173
CGACUGG	0.602
ACUCCUG	-0.724
GUGGGGU	4.71
AUUCACC	-0.74
CGCUCUC	-0.617
CCCGGUG	0.105
AGGUAUA	1.23

Sequence	RNAcompete 7-mer binding Z-score
UCAUGUG	-0.22
CAUAGCU	-0.665
CCUAGCU	-0.753
UGCCAAA	-0.772
ACCUGGU	-0.509
UGGGGAG	3.36
CGUUGUU	-0.422
CAACGGU	0.261
AGUAGGA	2.8
CUAAUAC	-0.828
ACUCCGU	-0.785
AUUCCAA	-0.75
UCGAGAG	0.0853
UACAGAG	0.0755
AAGGUGC	2.39
AGCUAGG	1.29
GAUAGUG	1.28
GUGGGCG	3
AUAUAAC	-0.574
UUCGAGG	0.202
UGUAACG	-0.227
CAGGUAU	0.706
